About 540 (0.36%) of roughly 150,000 compounds showed an effect of 50% or more. Some of the results follow.

The subject of this assay is Plasmodium falciparum. Put plainly: Primary screen in NF54 nanoGlo assay, in single point, at 2uM, 72h; a lower Z score goes with more inhibition. Type of assay: functional, Erythrocyte. The conditions noted are these: timepoint 72 hour.
As to `Cc1ccccc1C(=O)NCC(=O)N(C)[C@@H](CO)C(C)(C)C`, the “% Inhibition” value came out at 21% and the Z score is on record as -3.12.
Regarding `CCCN(CC(=O)N1CCn2cccc2[C@H]1c1cccc(Oc2ccccc2)c1)C(=O)Nc1ccc(C(F)(F)F)cc1`, the “% Inhibition” value was 13% and the Z score is recorded as -1.18.
On the same counts, the results for `O=C(CNC(=O)NCCOc1ccc(F)c(F)c1)NC1CC1` are -15% and 2.08.
As for `CC(=O)N1CCC(C(=O)Nc2cccc(S(=O)(=O)N3CCCC3)c2)CC1`, the “% Inhibition” value was determined as 0% and the Z score worked out at 0.
On the same counts, the results for `C=CCN1C[C@H](C)N(C(=O)c2cccc(-c3cc(C)nc(C)c3)c2)C[C@@H]1C` are -3% and 0.64.
On the same counts, the results for `CCc1ccc(S(=O)(=O)N2CCC3(CCc4nnc(COC)n4CC3)CC2)cc1` are -4% and 0.35.
`O=C(NC[C@H]1Cn2ccnc2CO1)c1ccc(Cl)cc1`: the “% Inhibition” value is -15% and the Z score is 1.89.
Regarding `CC(NC(=O)c1cn(C(F)(F)CO)nn1)C1CC2CCC1C2` (stereo not given), the “% Inhibition” value is -3% and the Z score is listed as 0.37.
On to `COc1ccc(NC(=O)c2ccc3c(c2)CCCC3)cc1S(=O)(=O)N1CCCCC1`, for which the “% Inhibition” value is given as -36% and the Z score is given as 4.24.
On the same counts, the results for `O=C(N[C@H]1CCCOC1)c1cccs1` are 1% and -0.12.
For the compound `CCCC[C@H](CC)C(=O)Nc1ccncc1`, the “% Inhibition” value is 7% and the Z score is -1.07.
Turning to `Cn1nc(C(=O)NC2CC2)c2c1CN(S(=O)(=O)Cc1ccccc1)C2`, the “% Inhibition” value is on record as -13% and the Z score came to 1.68.
On the same counts, the results for `Cc1ccc(-c2ccc(C(=O)NCCc3n[nH]c(=O)n3C)cc2)c(C)n1` are -5% and 0.65.
On the same counts, the results for `Fc1ccc(CC[C@H]2CCCN(CCc3ccccn3)C2)c(F)c1` are -11% and 1.08.
Turning to `CC(C)Cc1cc(CNC(=O)Nc2ccnn2Cc2cccc(F)c2)no1`, the “% Inhibition” value is reported as 1% and the Z score is -0.09.
On the same counts, the results for `O=S(=O)(NCCn1nccn1)c1ccccc1` are -9% and 1.33.
With `CN1CCCC(CNC(=O)Nc2nncs2)C1c1cccs1` (stereo not given), the “% Inhibition” value was -3% and the Z score came to 0.48.
On the same counts, the results for `CN(C[C@H]1CCS(=O)(=O)C1)c1cnn(C)c1` are 12% and -1.21.
On the same counts, the results for `COc1ccc(C(=O)N2CC(Nc3ncccn3)C2)cn1` are -14% and 2.12.
Turning to `C[C@H](OC(=O)c1noc2c1CCCC2)c1ccccn1`, the “% Inhibition” value is reported as -12% and the Z score came to 2.22.
On the same counts, the results for `Cc1ccc(C(=O)Nc2nccnc2C(=O)N2CCC(Cc3ccccc3)CC2)cc1` are -15% and 2.23.
With `COc1ccccc1[C@@H]1NC(=O)NC(C)=C1C(=O)N1CCc2[nH]cnc2C1`, the “% Inhibition” value is given as -8% and the Z score amounted to 1.12.
On the same counts, the results for `CCCCNC(=O)Cc1noc(C2CC2c2cccnc2)n1` (stereo not given) are -1% and 0.14.
On the same counts, the results for `O[C@H]1[C@H](NCc2ccccc2)[C@@H](c2cccnc2)C[C@H]1O` are 2% and -0.33.
On the same counts, the results for `C[C@]1(CO)CCCCN1CC(=O)NCCc1ccc(S(N)(=O)=O)cc1` are 7% and -0.85.
Consider `O=C1C2C3C=CC([C@@H]2C(=O)N1c1ccccc1)C31CC1` (stereo not given in full), for which the “% Inhibition” value is reported as -2% and the Z score is recorded as 0.34.
On the same counts, the results for `Cc1ccc(-c2cnc3ccc(F)cc3c2)cn1` are -11% and 1.36.
On the same counts, the results for `CCOc1cc(C(=O)N[C@H]2CCCN(CCOC)C2)n[nH]1` are -8% and 1.1.
For `Cc1ccc(CN(C)CC[C@H]2CCCCO2)cc1F`, the “% Inhibition” value was -13% and the Z score turned out to be 2.06.
Turning to `O=C(NCCCOC(F)F)NCc1ccccn1`, the “% Inhibition” value is given as 0% and the Z score is reported as 0.05.
`CNC(=O)c1c(F)cccc1Br`: the “% Inhibition” value is -11% and the Z score amounted to 1.71.
On the same counts, the results for `N#Cc1ccc(CNC[C@H](O)C2CCCCC2)cc1` are 3% and -0.39.
Consider `O=C(N[C@@H](CCO)c1ccco1)c1cc(Cn2cccn2)on1`, for which the “% Inhibition” value came out at 36% and the Z score is -4.05.
`CC[C@]1(N2CCN(S(=O)(=O)c3ccc4c(c3)CCCC4)CC2)CCN(C(=O)C(C)C)C1`: the “% Inhibition” value is given as -5% and the Z score was determined as 0.46.
For `O=C(CN1N=C(c2nc(-c3ccccc3)no2)CCC1=O)Nc1ccc(Cl)c(Cl)c1`, the “% Inhibition” value was 29% and the Z score is on record as -3.24.
On the same counts, the results for `COCCN(C)c1ccc(CNc2nncn2-c2ccccc2)cn1` are -7% and 1.06.
On the same counts, the results for `COc1ccc(OC)c(-c2cc(CN(Cc3ccco3)C(=O)c3ccc(Cl)cc3)no2)c1` are -14% and 2.29.
On the same counts, the results for `CCN(C(=O)CN1CCO[C@@H](CN(C)C)C1)C1=CCCCC1` are -7% and 1.04.
As for `CCS(=O)(=O)N1CC[C@H](c2ncc(C)n2Cc2ccccc2)C1`, the “% Inhibition” value was -5% and the Z score is reported as 0.75.
On the same counts, the results for `O=C(NC1=CC=CN=CO1)Nc1ccccc1` are -2% and 0.42.
Take `Cc1[nH]c2c(C)cccc2c1CN1CCC[C@@](CO)(Cc2ccccc2F)C1`: the “% Inhibition” value was -12% and the Z score is 1.49.
With `CCOC(=O)N[C@@H](CNCc1c(C)cc(C)cc1C)C1CC1`, the “% Inhibition” value is 6% and the Z score was -0.65.
On the same counts, the results for `O=C(Nc1ccc(F)cc1Nc1ccccc1F)c1cc[nH]c(=O)c1` are -1% and 0.16.
As for `CC(C)(C)OC(=O)N1CCC(c2n[nH]c3c2COCC3)CC1`, the “% Inhibition” value is -7% and the Z score came to 1.08.
Regarding `C[C@H]1CCCN1C(=O)CCN1CCN(c2ncnc3sccc23)CC1`, the “% Inhibition” value is on record as -8% and the Z score came out at 1.29.
On the same counts, the results for `Cc1ccc(C#N)c(N2CCC[C@H](C(=O)N3CCOC4(CCCCCC4)C3)C2)n1` are -11% and 2.04.
Take `Cc1cnc(CNS(=O)(=O)c2ccc(OCC(F)F)cc2)o1`: the “% Inhibition” value is reported as -7% and the Z score is 0.91.
In the case of `CCC1CN(Cc2cnc(C3CC3)nc2)CC(C)S1(=O)=O` (stereo not given), the “% Inhibition” value was -1% and the Z score was determined as 0.12.
On the same counts, the results for `COc1ccc(OC)c(CNc2nccc(N(C)C)n2)c1` are -7% and 0.57.
On the same counts, the results for `CCNC(=O)N1CCc2nc(N3CCN(c4ccc(C)cc4)CC3)nc(N(C)C)c2C1` are -2% and 0.29.
On the same counts, the results for `C=Cc1cccc(-c2cc(-c3ccccn3)nc(N)c2C#N)c1` are -7% and 1.26.
For `O=S(=O)(c1cccc2cccnc12)N1C[C@@H]2CCCN2c2cc(C(F)(F)F)ccc21`, the “% Inhibition” value is -10% and the Z score is given as 1.53.
For the compound `CC(C)[C@@]1(O)CN(c2nccs2)C[C@@H]1C`, the “% Inhibition” value is -6% and the Z score amounted to 1.19.
On the same counts, the results for `CCOc1ccc(N2C[C@@H](c3nnc(NC(=O)Cc4ccc(OC)cc4)o3)CC2=O)cc1` are 2% and -0.23.
On the same counts, the results for `FC(F)(F)c1cc(NCc2nnc3n2CCCCC3)ccn1` are -12% and 1.26.
